Results: PubChem BioAssay (NCI)
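Method: 48-hour compound exposure of cells in 96-well plates, five concentrations, linear interpolation of endpoints. GI50 = concentration required for 50% inhibition of growth.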 A number of entries come with more than one value. This is not the full list of results. The source may hold further records. For some of these results: The records of an entry are repeated measurements across runs, samples, wells, individuals or studies. A tag in brackets gives the origin of a value. Letters count within one entry.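 TGI denotes the concentration required for complete inhibition of growth.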 For some of these results: A record mostly stands for its own series of concentrations, which the source does not state; some values may only mark the edge of a range.

Key:
Assay in all cases: NCI-60 cell line screen, 48 h
[1] = tested on: OVCAR-4 ovarian
[2] = tested on: DMS 114 small cell lung
[3] = tested on: NCI-H522 lung
[4] = tested on: OVCAR-3 ovarian
[5] = tested on: M19-MEL melanoma
[6] = tested on: NCI-H226 lung
[7] = tested on: RXF 393 renal
[8] = tested on: HCT-116 colon
[9] = tested on: KM12 colon
[10] = tested on: NCI-H23 lung
[11] = tested on: U251 CNS
[12] = tested on: SK-OV-3 ovarian
[13] = tested on: IGROV1 ovarian
[14] = tested on: DLD-1 colon
[15] = tested on: XF 498 CNS
[16] = tested on: KM20L2 colon
[17] = tested on: SF-295 CNS
[18] = tested on: SN12C renal
[19] = tested on: SF-268 CNS
[20] = tested on: NCI-H460 lung
[21] = tested on: HT29 colon

In the case of `CCOC(=O)/N=c1\ss/c(=N\C(=S)N(C)C)n1-c1ccccc1`, the TGI [1] is reported as 7.58 µM and > 100 µM, the TGI [2] is reported as 2.61 µM and > 100 µM and the TGI [3] is reported as 549 nM and 5.59 µM. For the same compound, the TGI [4] was 1.97 µM and > 100 µM and the TGI [5] was 8.21 µM and > 100 µM.

For `COc1cc(CCc2cc(NC(=O)c3ccc(N4C[C@@H](C)N[C@@H](C)C4)cc3)n[nH]2)cc(OC)c1`, the GI50 [6] was 125 nM [sample A, 1 test] and 3.97 µM [sample B, 1 test] and the GI50 [7] was 56.5 nM [sample A, 1 test] and 2 µM [sample B, mean of 2 tests].

In the case of `CC(=O)O[C@H]1C(=O)[C@@]2(C)C([C@H](OC(=O)c3ccccc3)[C@]3(O)C[C@H](OC(=O)[C@H](O)[C@H](NC(=O)c4ccccc4)c4ccc(Cl)cc4)C(C)=C1C3(C)C)C1(OC(C)=O)CO[C@@H]1C[C@@H]2O` (some centres not stated), the TGI [8] is reported as 1.76 nM and 11.5 µM, the TGI [9] is reported as 2.77 nM and 16.7 µM and the TGI [10] is reported as 4.43 nM and 48.5 µM. For the same compound, the TGI [11] was 22.4 nM and 19.3 µM, the TGI [12] was 6.64 nM and 19.5 µM and the TGI [13] was 11.6 nM and 22.3 µM. For the same compound, the TGI [14] was 443 nM and 48.3 µM, the TGI [15] was 45.8 nM and 25.8 µM and the TGI [16] was 3.06 nM and 1.21 µM. The TGI [17] was 232 nM and 12.8 µM, the TGI [18] was 30.1 nM and 90.8 µM and the TGI [19] was 97.5 nM and 78.4 µM. For the same compound, the TGI [5] was 3.65 nM and 14.7 µM, the TGI [20] was 593 nM and 13.1 µM and the TGI [21] was 2.82 nM and 2.91 µM.
